Out of some 410,000 compounds screened, about 6,400 (1.6%) were called active. The inconclusive results got no clear call from the source; some entries with a clear call stand among them for comparison. Calls come from the whole dose curve; as a rule, active = well fitted inhibition curve with a large enough effect; inconclusive = small, poorly fitted or top-dose-only effect; inactive = no such curve, though single readings can be large or run the other way. No potency is given beside an inconclusive call; the fits are too rough.
target: Glucagon-like peptide 1 receptor (Homo sapiens) (UniProt P43220); test: qHTS of GLP-1 Receptor Inverse Agonists (Inhibition Mode); conditions: HEK293 GLP-1R CRE-luciferase, luminescence, 24 h, GLP-1R form is constitutively active; series mostly up to 38.3 µM; note: nearly all actives have a fitted effect of over 55% in size
UniProt P43220, sequence (P43220 whole entry, looked up): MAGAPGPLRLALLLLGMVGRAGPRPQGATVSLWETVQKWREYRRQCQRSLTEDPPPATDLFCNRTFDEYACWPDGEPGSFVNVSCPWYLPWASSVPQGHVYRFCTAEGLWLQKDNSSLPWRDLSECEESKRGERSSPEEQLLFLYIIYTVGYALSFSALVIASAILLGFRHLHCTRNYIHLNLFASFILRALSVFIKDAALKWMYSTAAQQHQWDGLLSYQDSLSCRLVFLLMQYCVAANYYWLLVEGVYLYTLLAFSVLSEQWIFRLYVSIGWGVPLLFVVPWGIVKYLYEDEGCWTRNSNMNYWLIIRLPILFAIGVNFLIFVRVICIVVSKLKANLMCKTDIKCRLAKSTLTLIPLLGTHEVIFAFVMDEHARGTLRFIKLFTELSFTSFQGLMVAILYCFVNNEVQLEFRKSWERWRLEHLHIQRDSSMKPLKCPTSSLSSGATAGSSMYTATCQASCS
In short: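 Inverse agonists were sought by their lowering of basal cAMP reporter luciferase output in HEK293 cells stably carrying constitutively active human GLP-1R, after 24 h compound treatment.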
Potency is the fitted concentration of half-maximal effect; tags give direction and shape of the fitted curve.

| Compound | Potency |
| --- | --- |
| Cc1cc(Cl)c(OCCCNC2CCCC2)c(Br)c1 | inconclusive [inhibitor, full curve, poor fit] |
| O=C(/C=C/c1ccccc1)Nn1c(-c2cccs2)nc2ccccc2c1=O | inconclusive [inhibitor, partial curve, poor fit] |
| Cn1c(C(=O)N2CCC(C(=O)N3CCN(Cc4ccc5c(c4)OCO5)CC3)CC2)cc2sccc21 | inconclusive [inhibitor, single point] |
| COc1ccc(N2CCN(C(CNC(=O)c3ccc(C)cc3)c3ccc4c(c3)OCO4)CC2)cc1 (stereo unspecified) | inconclusive [inhibitor, single point] |
| CCS(=O)(=O)N1CCN(C(=O)COc2ccc(-c3ccccc3)cc2)CC1 | inactive |
| COc1ccccc1-c1cn[nH]c(=S)n1 | inactive |
| COc1ccc(Nc2ccncc2[N+](=O)[O-])cc1 | inconclusive [inhibitor, single point] |
| CC(=O)Nc1ccc(S(=O)(=O)N2CCSC2c2ccc(Cl)cc2)cc1 (stereo unspecified) | inconclusive [inhibitor, partial curve, poor fit] |
| CN(C)CCCn1c(=O)n(Cc2ccccc2)c(=O)c2c3c(sc21)CCCCC3 | inconclusive [inhibitor, full curve, poor fit] |
| O=C(c1ccc(-n2cccn2)cc1)N1CCc2c([nH]c3ccccc23)C1c1ccccn1 (stereo unspecified) | inconclusive [inhibitor, single point] |
| COc1ccc2oc(C(=O)NC3CCCCC3)c(C)c2c1 | inconclusive [inhibitor, single point] |
| CC(=O)Nc1ccc(CC(=O)NCCC(c2ccccc2)c2ccccc2)cc1 | inconclusive [inhibitor, partial curve] |
| O=[N+]([O-])c1cc(-c2csc(NCCc3nc4cc(Cl)c(N5CCCCC5)cc4n3CCCO)n2)ccc1Cl | active: 2.24 µM |
| CCc1ccc2oc(-c3cc(N)ccc3Cl)nc2c1 | inconclusive [inhibitor, single point] |
| CN=C1c2cc3cc(OC)ccc3n2CCN1Cc1ccccc1 | active: 5.01 µM |
| CCOCCCNC(=O)c1cc(Sc2ccc(F)cc2)nc2ccccc12 | inconclusive [inhibitor, partial curve, poor fit] |
| Oc1c(C(c2ccccc2)N2CCOCC2)ccc2ccccc12 (stereo unspecified) | inconclusive [inhibitor, partial curve, poor fit] |
| C/C(CC(=O)Nc1cccc(C(F)(F)F)c1)=N\NC(=O)C1CCCCC1 | inconclusive [inhibitor, single point] |
| O=C(/C=C/c1ccccc1)NC(=S)Nc1ccc(CN2CCOCC2)cc1 | inconclusive [inhibitor, single point] |
| Cc1ccc2scc(N3CCN(c4ccccc4)CC3)c(=O)c2c1 | inactive |
| CCOc1ccc(CCNC(=O)c2ccc3[nH]c(C)c(C)c3c2)cc1 | inconclusive [inhibitor, single point] |
| CC(C)(C)C(=O)NCCc1nc2ccccc2n1CC(=O)c1ccc(Cl)cc1 | inconclusive [inhibitor, single point] |

| Compound | Potency |
| --- | --- |
| O=C(CSCc1nc2cccnc2n1C1CCCCC1)NCc1cccc(Br)c1 | inconclusive [inhibitor, single point] |
| O=C(Nc1c(Cl)cc2c(c1Cl)Cc1cc([N+](=O)[O-])ccc1-2)C(Cl)Cl | inactive |
| COc1cc(OC)cc(C(=O)N[C@H](C(=O)Nc2nc3ccccc3[nH]2)C(C)C)c1 | inconclusive [inhibitor, full curve, poor fit] |
| CCn1c(Cl)c(C=O)s/c1=N\S(=O)(=O)c1ccccc1 | inconclusive [inhibitor, single point] |
| COC(=O)[C@@]12C[C@@H](CC(=O)NCc3cccc4ccccc34)C(=O)N(Cc3ccc4c(c3)OCO4)C1=CCC(C)(C)C2 | inconclusive [inhibitor, partial curve, poor fit] |
| CCN(C(=O)Cn1c(SCc2ccccc2F)nc2cccnc21)c1ccccc1 | inactive |
| CCOc1cc(C(=O)N=c2sccn2C)cc(Br)c1OC | inconclusive [inhibitor, single point] |
| CCOc1ccc(CCNC(=O)c2ccc(Cn3c(=O)c4cccn4c4cccnc43)cc2)cc1 | inactive |
| COc1ccc(-c2csc3ncnc(Nc4ccc(OC)c(OC)c4)c23)cc1 | inconclusive [inhibitor, single point] |
| CCc1nc2ccc(C(=O)NCCCn3ccnc3)cn2c1N(C)Cc1cc2ccccc2s1 | inconclusive [inhibitor, single point] |
| Cc1cc(NC(=O)Nc2cccc(C(F)(F)F)c2)no1 | inconclusive [inhibitor, single point] |
| O=C(c1ccc2c(c1)N(Cc1ccccc1F)C(=O)c1ccccc1S2(=O)=O)N1CCCCCC1 | inactive |
| COc1cccc(CNC(=O)C2CCN(Cc3cnn(-c4ccccc4)c3-n3cccc3)CC2)c1 | inconclusive [inhibitor, single point] |
| CN(c1cccc(Cl)c1)S(=O)(=O)c1cccc(C(=O)NC2=NCCS2)c1 | inconclusive [inhibitor, partial curve, poor fit] |
| COc1ccc2nc(Nc3nc(C)c(C(C)=O)s3)sc2c1 | inconclusive [inhibitor, partial curve, poor fit] |
| CCOC(=O)c1sc2nc(C)nc(NCc3ccccc3OC)c2c1C | inactive |
| COC(=O)C1CN(C(=O)COc2ccc(Cl)cc2C)c2ccccc2O1 (stereo unspecified) | inconclusive [inhibitor, single point] |
| O=C(N/N=C\c1ccccn1)C1COc2cc3ccccc3cc2O1 (stereo unspecified) | inconclusive [inhibitor, single point] |
| Cc1ccc(OCCN(C)C(=O)c2cc(COc3ccc(F)cc3F)on2)cc1 | inconclusive [inhibitor, partial curve, poor fit] |
| CCN(CC)CCN1C(=O)c2ccccc2NC1c1ccc(F)cc1 (stereo unspecified) | inactive |
| COc1ccccc1N1CCN(C(c2ccccc2)c2nnc(-c3ccccc3Cl)o2)CC1 (stereo unspecified) | inconclusive [inhibitor, single point] |
| CC1(Oc2ccc3ccccc3c2)CCN(Cc2cccn2-c2nccs2)C1 (stereo unspecified) | inconclusive [inhibitor, single point] |

| Compound | Potency |
| --- | --- |
| Cc1ccc2c(Cl)cc(Cl)c(OCC(=O)Nc3cccc(S(N)(=O)=O)c3)c2n1 | inactive |
| CCOC(=O)c1c(C)[nH]c(C)c1S(=O)(=O)NCCN1CCN(c2cc(Cl)ccc2C)CC1 | inconclusive [inhibitor, single point] |
| COc1ccc(C(=O)NCCS(=O)(=O)NCc2cccnc2)cc1 | inactive |
| CCOc1ccc(OCC)c(NC(=O)CN(c2ccc(C)cc2)S(=O)(=O)c2c(C)n[nH]c2C)c1 | inconclusive [inhibitor, single point] |
| CC(=O)NC(c1ccccc1)c1c(O)ccc2ccccc12 (stereo unspecified) | inconclusive [inhibitor, partial curve] |
| Cc1cc(C)c(C(=O)NC2CC(C)(C)Cc3c2cnn3-c2cccc(F)c2)[nH]1 (stereo unspecified) | inconclusive [inhibitor, single point] |
| C=CCN(CC=C)C(=S)NC(=O)/C=C/c1ccc(OC)cc1 | inconclusive [inhibitor, full curve, poor fit] |
| CCOc1cc2[nH]c(=O)n(Cc3ccc(C(=O)NCCCN4CCC(C)CC4)cc3)c(=O)c2cc1OCC | inconclusive [inhibitor, single point] |
| Cc1c(Cc2c(Cl)cccc2Cl)c(=O)ccn1C(C)c1ccccc1 (stereo unspecified) | inconclusive [inhibitor, partial curve, poor fit] |
| CC(C)(C)CC(=O)Nc1ccccc1N1CCN(c2ccc(F)cc2)CC1 | inconclusive [inhibitor, single point] |
| CC(C)C(=O)NCCn1ccc2ccccc21 | inactive |
| O=C(O)C1CC=CCC1C(=O)NNc1ccccc1 (stereo unspecified) | inconclusive [inhibitor, single point] |
| Cc1ccc(-c2nnc(N3CCN(C(=O)c4ccco4)CC3)c3ccccc23)cc1 | inconclusive [inhibitor, partial curve, poor fit] |
| CCC1CCCCN1C(=O)Cn1c(=O)n(-c2ccccc2C(F)(F)F)c(=O)c2c(C)c(C(=O)N(C)C)sc21 (stereo unspecified) | inactive |
| Cc1ccc(-n2c(O)c(/C=N/NC(=O)C3COc4ccccc4O3)c3ccccc3c2=O)cc1 (stereo unspecified) | inconclusive [inhibitor, single point] |
| O=C(Nc1cc(Br)ccc1O)c1cc(-c2ccco2)on1 | inactive |
| COc1cc(Cl)c(NS(=O)(=O)c2ccc3[nH]c(=O)ccc3c2)c(OC)c1 | inactive |
| CN(C)CCNc1nc(Oc2cccc(F)c2)c2sccc2n1 | inconclusive [inhibitor, partial curve, poor fit] |
| CC(=O)c1cc2c(C)c(C(=O)c3ccccc3)oc2cc1O | inactive |
| Fc1ccccc1CSc1nnc(-c2cccs2)o1 | inactive |
| O=C(Nc1ccc(F)cc1)C(c1ccccc1OC(F)(F)F)N1CCN(c2cccc(C(F)(F)F)n2)CC1 (stereo unspecified) | inconclusive [inhibitor, full curve] |
| N#CC1=C(SCC(=O)Nc2cccc3cccnc23)NC(=O)C(C#N)C12CCCCC2 (stereo unspecified) | inactive |
